Reference: the RNAGym collection of RNA variant scans (doi:10.7554/elife.90254)
The source gives no read counts; variants with many changes may rest on few reads.

B1: OR4K15 (parent)
chain: GUUAACGGUCAUAGGCCAUGGAAACUAGGAGCACCAUUUCGCUGCCAGUGAAGAAAUGAACAAAGAAAAUCUGGGCCAGGCAGGCAUCAAAAGAAAUAGUCUUGCGCUCAACCAGAAAGUCUGUAAUCAUUUUAAGGGUA

Variants of: B1
Test: self-cleavage, relative activity (ratio to wild type); higher = more cleavage; in vitro, sequencing; the parent is a self-cleaving ribozyme
Variant C16U A67G U108C A111U has a self-cleavage of 0. Work on A22G A62G A67G U122C yielded a self-cleavage of 0.76. Variant U38C A51G U87A has a self-cleavage of 1.64. With A55C A60G A68G A82G A91G A126U the self-cleavage was 0.01. A5G A33G A118U U120C gave a self-cleavage of 0.23. A24G A30U A82U A117G showed a self-cleavage of 0.27. U37C A69G U72C U124A gave a self-cleavage of 0.2. A78U A82U U108C showed a self-cleavage of 0.02. Work on A36U A67G G84A A96U yielded a self-cleavage of 2.2. Work on A98U U131C A140G yielded a self-cleavage of 2.05. Variant A54U A82G U102C U130C has a self-cleavage of 0.72. C77U A125G A129U gave a self-cleavage of 0.68. A47U A68U U100A showed a self-cleavage of 0.41. In the case of U26G A78G A96G U108C, the self-cleavage is reported as 0. A62U A117G U120C showed a self-cleavage of 1.02. For A18U A54G A64U U72C, the self-cleavage was 0.2. Work on U19C U26C U97C U124C yielded a self-cleavage of 0.85. Work on A55G U102A A126G yielded a self-cleavage of 0.6. For A24G A54G A82U A92G, the self-cleavage was 0.36. In the case of U9C A13C A23G U43A A66G U100C A140U, the self-cleavage is reported as 0.89. U39C A64G A126G showed a self-cleavage of 0.87. G1A C35A A89G showed a self-cleavage of 1.74. Variant A54G A60G A68U A117G has a self-cleavage of 0.71. U39A A47G A55G A96G A118G showed a self-cleavage of 0.62. Variant C32U A55G G58A A86G A129G has a self-cleavage of 0.48. Work on U9C G15A U19C C109U yielded a self-cleavage of 0.37. In the case of U2A U49C U72C C113U, the self-cleavage is reported as 0. With A11U U43C A54G A62G U70C A140G the self-cleavage was 0.76. Work on U9A A52G A117G yielded a self-cleavage of 1.71. G28A A64G A78G A118G showed a self-cleavage of 0.16. Variant A36G A68U G80A A135U has a self-cleavage of 0.31. Work on U49C A54G G83A A114G yielded a self-cleavage of 0.67. Variant U9C A33G A89G A94G U100C U120C has a self-cleavage of 1.46. G31C U124C U132C showed a self-cleavage of 1.34. For A55G C85G U127C, the self-cleavage was 0.29. A22G A24G G41A A117G showed a self-cleavage of 1.66. A47U A67G C109A A118U gave a self-cleavage of 0.04. Variant U39C A64G A94G has a self-cleavage of 1.39. For A22G U87C A94G U102C, the self-cleavage was 1.3. U49C U70A A90G showed a self-cleavage of 0.62. With U38C A67G A95G the self-cleavage was 1.06. For U38C A52G U87C A94G A125G, the self-cleavage was 0.6. Work on A36U U72A U130C yielded a self-cleavage of 0.09. A33G C81U A116G showed a self-cleavage of 0.06. With A52G A60G A96U A118G the self-cleavage was 1.19. A24G A36G A86G gave a self-cleavage of 0.7. Variant A47U A54G A69G has a self-cleavage of 1.18. Variant U3C A68G A92G U108A U130C U132C has a self-cleavage of 0. C46A A92G U124C showed a self-cleavage of 0.52. A82G U103C A118G gave a self-cleavage of 0.79. Variant A27G A63G A111G U124C U127C has a self-cleavage of 0. U3C A96G U108C U131C showed a self-cleavage of 0.01. G29A A56G A95G showed a self-cleavage of 2.57. Variant U12C U39C A68G A94G A110G has a self-cleavage of 0.16. For A51U A56G U122A U127A A140U, the self-cleavage was 0.95. A11G A60C A68U A69G U72G showed a self-cleavage of 0.32. Work on C25G U127A U131C yielded a self-cleavage of 2.31. For A23G A66G U102C, the self-cleavage was 1.78. In the case of U9C A18C A56G A82G, the self-cleavage is reported as 0.51. U19C A23G G28A A66G A110G U122C gave a self-cleavage of 0.07. Variant A23G A78C A140G has a self-cleavage of 0.15. With A68G A82G A111G U122A the self-cleavage was 0.05. Work on U49C A54G U57C U70A A94G yielded a self-cleavage of 0.59. Variant C17U A24G A66G A69U A114G has a self-cleavage of 0.52. Work on U57C U72C A110U yielded a self-cleavage of 0.22. For U2C A51G A82G A114U, the self-cleavage was 0.07. Work on A22G U26C C85U A117G yielded a self-cleavage of 1.55. A96G A117G A118G A135G showed a self-cleavage of 1.57. A22G A54G A129G showed a self-cleavage of 0.58. Variant A59G U72C U120C G137U has a self-cleavage of 0.03. Work on A5G U57C U132A G137U yielded a self-cleavage of 0.81. Variant A30G U72C A116U has a self-cleavage of 0.02. U49C U72A A89G A95G gave a self-cleavage of 0.02. Work on A55G A66G A68G yielded a self-cleavage of 0.96. A33G A96G A114G G119A gave a self-cleavage of 0.69. A24G A68G A96G showed a self-cleavage of 1.11. With U12A A22U A82G the self-cleavage was 0.72. A36U U49C U87C showed a self-cleavage of 1.37. With A33G U43C U122C the self-cleavage was 0. With U19A A86G A117G the self-cleavage was 2.37. Work on A51G A86G A95G U100C U130C yielded a self-cleavage of 2.53. In the case of A23G A67G U103C, the self-cleavage is reported as 0.03. A11U A36G U43C A59G A86U U87C U127A showed a self-cleavage of 2.33.
